Data reported in publication PMC4336329 (PLoS ONE, 2015).
About 2,200 (0.71%) of roughly 310,000 compounds showed an effect of 50% or more. The effect is printed as a negative number. The list shows a part of the results. Where a SMILES comes first, the peptide text is derived from it. [ ]: non-standard residue; d: D form. The star is where a group is joined. ξ: configuration not given here. Cbz = O=C(OCc1ccccc1)*; ξV = CC(C)C(N)C(=O)O

The molecules below were run against human ether-à-go-go-related gene (hERG) potassium channel (human, UniProt Q12809) (assay: primary screen, population patch clamp on CHO cells stably expressing hERG).
Chain of human ether-à-go-go-related gene (hERG) potassium channel (Q12809 whole entry, looked up): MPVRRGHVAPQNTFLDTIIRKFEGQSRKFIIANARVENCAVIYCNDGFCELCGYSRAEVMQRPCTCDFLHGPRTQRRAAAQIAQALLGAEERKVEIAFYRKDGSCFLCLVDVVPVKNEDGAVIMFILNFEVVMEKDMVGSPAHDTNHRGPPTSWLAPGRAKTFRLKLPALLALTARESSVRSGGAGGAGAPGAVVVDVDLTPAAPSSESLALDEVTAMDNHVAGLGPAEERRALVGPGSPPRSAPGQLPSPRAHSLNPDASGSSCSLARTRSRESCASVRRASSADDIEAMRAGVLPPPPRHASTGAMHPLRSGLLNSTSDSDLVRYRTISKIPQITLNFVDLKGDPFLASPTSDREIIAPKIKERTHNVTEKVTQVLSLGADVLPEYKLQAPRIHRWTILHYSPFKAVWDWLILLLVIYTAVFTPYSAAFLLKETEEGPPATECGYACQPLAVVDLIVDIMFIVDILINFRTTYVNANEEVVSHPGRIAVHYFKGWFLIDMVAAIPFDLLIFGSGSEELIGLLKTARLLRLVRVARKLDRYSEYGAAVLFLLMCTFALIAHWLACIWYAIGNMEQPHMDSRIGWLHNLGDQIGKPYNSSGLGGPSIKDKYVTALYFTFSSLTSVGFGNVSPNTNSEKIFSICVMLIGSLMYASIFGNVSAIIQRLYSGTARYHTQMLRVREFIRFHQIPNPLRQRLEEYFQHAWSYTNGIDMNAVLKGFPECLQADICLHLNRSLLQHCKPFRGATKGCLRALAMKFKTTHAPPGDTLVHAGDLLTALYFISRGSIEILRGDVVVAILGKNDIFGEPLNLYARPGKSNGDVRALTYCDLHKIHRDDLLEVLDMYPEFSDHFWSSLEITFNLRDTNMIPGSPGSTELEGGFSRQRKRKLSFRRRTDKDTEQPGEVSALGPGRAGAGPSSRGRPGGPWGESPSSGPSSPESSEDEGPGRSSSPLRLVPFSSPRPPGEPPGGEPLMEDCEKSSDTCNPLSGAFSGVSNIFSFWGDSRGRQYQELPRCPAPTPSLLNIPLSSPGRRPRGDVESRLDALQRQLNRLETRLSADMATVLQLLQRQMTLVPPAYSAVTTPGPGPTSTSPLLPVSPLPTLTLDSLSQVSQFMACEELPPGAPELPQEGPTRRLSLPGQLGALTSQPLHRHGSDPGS

First: COc1ccc2cc(C(=O)Nc3ccc(F)cc3)sc(=O)c2c1OC
Second: CCc1ccc(NC(=O)Nc2cccc(OC)c2)cc1
The “hERG current change (%, negative = inhibition) at 1uM” value of the first is higher: 11.4% for the first, 7.59% for the second.

Going from `CCC(=O)Nc1sc(C(=O)OC)c(C)c1C(=O)OC` to `CCOc1ncccc1C(=O)OCC(=O)Nc1c(C)cccc1C`, the “hERG current change (%, negative = inhibition) at 1uM” value falls from 14.3% to 6.35%.

Compared with `Cc1ccc(C2=N/C(=C\c3ccc(F)cc3)C(=O)N2)cc1`, `Fc1ccc(N2Cc3ccsc3C=N2)cc1` is higher in “hERG current change (%, negative = inhibition) at 1uM” value: 0.14% for the first, 9.09% for the second.

Compared with `Cc1ccc(NC(=O)C2=COCCO2)cc1S(=O)(=O)N1CCOCC1`, `Cn1c(CN2CCOCC2)nc2cc(NC(=O)COc3ccccc3)ccc21` is lower in “hERG current change (%, negative = inhibition) at 1uM” value: 13% for the first, 6.7% for the second.

First: Cc1cc(C(=O)NNC(=S)Nc2cccc(C(F)(F)F)c2)nn1C
Second: C#CC(C)(CC)NC(=O)Cn1nnc(-c2cccc(C(F)(F)F)c2)n1 (stereo not drawn)
The “hERG current change (%, negative = inhibition) at 1uM” value of the first is higher: 18.6% for the first, -1.45% for the second.

Going from `O=C(c1ccncc1)N(Cc1ccccc1)Cc1nc2ccccc2c(=O)[nH]1` to `Cc1nn(-c2ccccc2)c2sc(C(=O)NNC(=O)COc3cccc4ccccc34)cc12`, the “hERG current change (%, negative = inhibition) at 1uM” value falls from 17.6% to 1.28%.

Compared with `O=C(C[N+]1(CC#Cc2ccccc2)CCOCC1)c1ccccc1.[Br-]`, `CC1CCCC(C)N1C(=O)CSc1nnc(COc2ccccc2)n1-c1ccccc1` (stereo not drawn) is lower in “hERG current change (%, negative = inhibition) at 1uM” value: 19.2% for the first, 9.62% for the second.

Compared with `CCN(CCCNC(=O)CN(C)S(=O)(=O)c1cccc2nsnc12)c1ccccc1`, `CCCCN(C)C(=O)C1CCN(Cc2cccc(OCc3ccccc3)c2)CC1.O=C(O)C(=O)O` is lower in “hERG current change (%, negative = inhibition) at 1uM” value: 7.83% for the first, -35.6% for the second.

First: NC(=O)C1CCN(C(=O)CCc2nc3ccccc3c(=O)[nH]2)CC1
Second: CCc1ccc(/C=N/NC(=O)c2cc(C3CC3)nc3ccccc23)s1
The “hERG current change (%, negative = inhibition) at 1uM” value of the first is higher: 9.31% for the first, 3.91% for the second.

Going from `CCCCS(=O)(=O)N1CCCC(C(=O)NCCc2ccccc2)C1` (stereo not drawn) to `CCCCCCCN1CCC(=O)N([C@H](CO)Cc2ccccc2)CC1`, the “hERG current change (%, negative = inhibition) at 1uM” value falls from 14.2% to -77.2%.

Going from `COc1ccc(C)cc1NC(=O)CSCc1ccccc1C` to `COc1ccccc1NC(=O)Cn1c(=O)n(-c2ccccc2)c(=O)c2oc3ccccc3c21`, the “hERG current change (%, negative = inhibition) at 1uM” value falls from 9.21% to 3.63%.

Going from `CCOC(=O)N1CCN(C(=O)C2CCN(S(=O)(=O)c3cc(C)ccc3OC)CC2)CC1` to `CCOC(=O)N1CCN(C(=O)CCS(=O)(=O)c2ccc(Br)s2)CC1`, the “hERG current change (%, negative = inhibition) at 1uM” value rises from 7.79% to 11.9%.

Going from `CCC(C(=O)OCCOCCN(CC)CC)c1ccccc1` (stereo not drawn) to `C=CCNCCOCCOc1ccc(Cl)cc1C(C)(C)C.O=C(O)C(=O)O`, the “hERG current change (%, negative = inhibition) at 1uM” value falls from 10.3% to 9.25%.

First: O=C(NCc1cccnc1)C(=O)N/N=C/c1ccc([N+](=O)[O-])cc1
Second: CC(NC(=O)COc1cccnc1[N+](=O)[O-])c1ccc(Cl)cc1Cl (stereo not drawn)
The “hERG current change (%, negative = inhibition) at 1uM” value of the first is higher: 17% for the first, 9.69% for the second.

Going from `CCCc1cc2c(=O)c(-c3ccccn3)coc2cc1OC` to `Cc1c(NC(=O)C(C)C)cccc1-c1nc2ncccc2o1`, the “hERG current change (%, negative = inhibition) at 1uM” value rises from 10.4% to 18.5%.

First: CCn1c(SCC(=O)Nc2ccc(NC(C)=O)cc2)nc2c([nH]c3ccccc32)c1=O
Second: CCN1C(=O)c2cccc3c(NS(=O)(=O)c4ccc(NC(C)=O)cc4)ccc1c23
The “hERG current change (%, negative = inhibition) at 1uM” value of the first is higher: 16.8% for the first, -0.0346% for the second.

First: COc1cccc(NC(=S)Nc2ccc(Br)cc2Cl)c1
Second: Cc1cccc2nc(-c3ccco3)c(Nc3ccccc3)n12
The “hERG current change (%, negative = inhibition) at 1uM” value of the first is higher: 25.6% for the first, 5.43% for the second.

Going from `CCOC(=O)C(CC)(CC)C(=O)/C=C/c1ccc(Br)cc1` to `CCOC(=O)CN(C(=O)c1snc(C(N)=O)c1N)C(C(=O)NCCC(C)C)c1ccc(F)cc1` (stereo not drawn), the “hERG current change (%, negative = inhibition) at 1uM” value falls from 7.42% to 7.34%.

Going from `CC1CCN(S(=O)(=O)c2ccc3c(c2)CCN3C(=O)C2CCC2)CC1` to `CC1CN(c2ccc([N+](=O)[O-])cc2Cl)CCN1S(C)(=O)=O` (stereo not drawn), the “hERG current change (%, negative = inhibition) at 1uM” value falls from 13% to -9.35%.

Going from `CC(Oc1ccccc1F)c1nnc(SCC(=O)Nc2ccc(N3CCOCC3)cc2)o1` (stereo not drawn) to `CCn1c(SCC(=O)NC2CCCc3ccccc32)nnc1-c1ccncc1` (stereo not drawn), the “hERG current change (%, negative = inhibition) at 1uM” value falls from 7.98% to 1.47%.

Going from `COc1ccc(OCC(O)CN2CCCCCC2)cc1` (stereo not drawn) to `Cc1ccc(N(CC(O)CN2CCCCC2)S(=O)(=O)c2ccccc2[N+](=O)[O-])cc1` (stereo not drawn), the “hERG current change (%, negative = inhibition) at 1uM” value falls from 3.87% to -48.8%.

First: COc1ccc(CN(Cc2cc3cc4c(cc3[nH]c2=O)OCO4)C(=O)NC2CCCCC2)cc1
Second: COc1ccc2[nH]c(=O)c(CN(C(C)=O)C3CCCCC3)cc2c1
The “hERG current change (%, negative = inhibition) at 1uM” value of the first is lower: -8.93% for the first, -3.87% for the second.

Compared with `COC(=O)CNC(=O)C(NC(=O)OCc1ccccc1)C(C)C` (stereo not drawn) (Cbz-[ξV]-Gly-OMe), `O=C(NNC(=O)c1sccc1-n1cccc1)c1ccccc1` is higher in “hERG current change (%, negative = inhibition) at 1uM” value: 6.38% for the first, 8.34% for the second.

Compared with `Cc1oc(CC(C)C)cc1C(N)=O`, `N#Cc1ccc(COC(=O)CSc2nnc(N)s2)cc1` is lower in “hERG current change (%, negative = inhibition) at 1uM” value: 17.7% for the first, 13.6% for the second.

First: COc1ccccc1CN1C(=NC(=O)CCC2CCCC2)SC2CS(=O)(=O)CC21 (stereo not drawn)
Second: Cl.O=C(OCCN1CCCCC1)C1(c2ccccc2)CCCC1
The “hERG current change (%, negative = inhibition) at 1uM” value of the first is higher: 15.4% for the first, 15.3% for the second.

First: CCOC(=O)c1[nH]c2c(c1-c1ccccc1)C(=O)CC(c1ccccc1)C2 (stereo not drawn)
Second: O=C1C(Cl)=C(N2CCN(Cc3ccccc3)CC2)C(=O)N1Cc1ccccc1
The “hERG current change (%, negative = inhibition) at 1uM” value of the first is lower: -5.44% for the first, 8.7% for the second.

Going from `N#Cc1ccccc1Cn1cc(C#N)c2ccccc21` to `CCOc1cc(/C=C(/C#N)C(=O)Nc2ccc(OC)cc2)ccc1OCc1ccc(C(=O)O)cc1`, the “hERG current change (%, negative = inhibition) at 1uM” value rises from 2.92% to 11.6%.

Compared with `CCOC(=O)N1CC=C2C(C#N)=C(N)C(C#N)(C#N)[C@H](c3ccc(OCC)c(OCC)c3)[C@H]2C1`, `CCOc1ccc(C(=O)OCC(=O)Nc2nc(OC)cc(OC)n2)cc1OCC` is higher in “hERG current change (%, negative = inhibition) at 1uM” value: 7.29% for the first, 12.3% for the second.

With `Cl.OC1(C#CCN2CCCC2)CCCCC1` the “hERG current change (%, negative = inhibition) at 1uM” value was 10.1%.
